Laboratory results from PubChem BioAssay AID1476 (National Center for Advancing Translational Sciences (NCATS), 2009).
About 4,500 (2.2%) of roughly 200,000 compounds were called active. The shares of active, inactive and inconclusive entries below differ from those in the screen. The call rests on the fitted dose curve; in most records, active means well fitted inhibition curve with a large enough effect; inconclusive means small, poorly fitted or top-dose-only effect, or effect the other way; inactive means flat fitted curve, though single readings scatter. A potency beside an inconclusive call is a rough fit, not a confirmed value.

What follows are molecules tested against Cruzipain (Trypanosoma cruzi) (UniProt P25779) (assay: qHTS Assay for Promiscuous and Specific Inhibitors of Cruzain (without detergent)). Settings: purified cruzain, Z-FR-AMC fluorescence, no detergent.
How it was run: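 Purified cruzain at 1.5 nM, pre-incubated 15 min with compound at room temperature in 100 mM sodium acetate pH 5.5, 5 mM DTT, 0.00005% Triton X-100. Reaction started with 2 uM Z-FR-AMC; AMC fluorescence increase over 60 s gives rate.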
Further: nearly all actives have a fitted effect of over 40% in size.
Potency means the concentration at half of the fitted maximal effect; tags describe the fitted curve by direction and shape.
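Wherever max response, negative = inhibition is given: plate controls were enzyme without inhibitor for no effect and buffer without enzyme for full effect.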

Sequence of UniProt P25779 (P25779 whole entry, looked up): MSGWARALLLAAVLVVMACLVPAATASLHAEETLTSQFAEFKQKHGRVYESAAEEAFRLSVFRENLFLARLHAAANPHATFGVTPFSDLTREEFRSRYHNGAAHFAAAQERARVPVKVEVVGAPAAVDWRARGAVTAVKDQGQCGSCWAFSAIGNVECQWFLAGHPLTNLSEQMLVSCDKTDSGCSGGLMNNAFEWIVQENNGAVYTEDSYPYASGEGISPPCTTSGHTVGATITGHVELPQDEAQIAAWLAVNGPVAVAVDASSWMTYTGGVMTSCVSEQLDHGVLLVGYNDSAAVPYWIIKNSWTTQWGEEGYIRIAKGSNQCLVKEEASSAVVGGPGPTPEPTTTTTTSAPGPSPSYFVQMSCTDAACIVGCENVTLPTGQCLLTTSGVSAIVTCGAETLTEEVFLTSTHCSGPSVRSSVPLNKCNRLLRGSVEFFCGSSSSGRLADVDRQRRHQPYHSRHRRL

`O=C(Cn1nc(-c2ccc(Cl)cc2)ccc1=O)NCc1ccccc1Cl` was tested. Which max response, negative = inhibition did it give?
Its max response, negative = inhibition is inactive: 4.64%.

Which Potency does the source give for `COC(=O)[C@@]1(Cc2ccc(F)cc2)[C@H]2c3cc(C(=O)N(C)C)n(Cc4cc(C)n(C)n4)c3C[C@H]2CN1C(=O)c1ccccc1` here?
Its Potency is inconclusive: 5.01 µM [activator, full curve].

How did the max response, negative = inhibition turn out when `COc1cccc(N2CCN(C3C(=O)c4ccccc4N3C(C)=O)CC2)c1` (configuration not stated) was run?
Its max response, negative = inhibition is inactive: -11%.

`COc1cccc(C2C(C(=O)Nc3ccc(C)cc3C)=C(C)Nc3c(C(=O)Nc4cccc(C)c4)cnn32)c1OC` (configuration not stated) was tested. Which max response, negative = inhibition did it give?
The max response, negative = inhibition was inactive: -0.652%.

For `CCOc1ccc(OCC)c(NC(=O)CN(C)S(=O)(=O)c2ccc3c(c2)CCCC(=O)N3)c1`, which Potency is on record?
Its Potency is inconclusive: 25.1 µM [activator, single point].

For `Cn1c(=O)oc2cc(S(=O)(=O)N3CCCC(C(=O)NCC4COc5ccccc5O4)C3)ccc21` (configuration not stated), which Potency is on record?
Its Potency is inconclusive: 39.8 µM [activator, single point].

Which max response, negative = inhibition does the source give for `CCN(C(=O)CSc1nc2ccccc2n1Cc1cc(C)ccc1C)c1ccccc1` here?
The max response, negative = inhibition was inactive: 9.22%.

For `CCC(Sc1nncn2c1cc1occc12)C(=O)Nc1ccc(C)c(Cl)c1` (configuration not stated), which max response, negative = inhibition is on record?
The max response, negative = inhibition was inactive: -23%.

Which Potency does the source give for `Cc1c2cnn(CC(=O)Nc3cccc(C(F)(F)F)c3)c(=O)c2c(C)n1Cc1ccccc1Cl` here?
The Potency was inconclusive: 31.6 µM [inhibitor, single point].

With `CCOC(=O)c1ccc(NC(=O)CC2C(=O)N(c3cccc(OC)c3)C(=O)N2CCOC)cc1` (configuration not stated) as the molecule, how does the Potency read?
The Potency was inconclusive: 31.6 µM [activator, single point].

How did the Potency turn out when `COc1ccccc1/C=C/c1nc(C#N)c(N(C)C)o1` was run?
The Potency was inconclusive: 39.8 µM [inhibitor, single point].

`CCOC(=O)c1c(/N=C/c2c(O)n(-c3ccc(F)cc3)c(=S)[nH]c2=O)sc2c1CCCC2` was tested. Which max response, negative = inhibition did it give?
Its max response, negative = inhibition is inactive: -11%.

With `O=C1NC(=O)N(CCNc2ncc(C(F)(F)F)cc2Cl)C(=O)C1/C=N/OCc1c(F)cccc1Cl` (configuration not stated) as the molecule, how does the Potency read?
The Potency was inconclusive: 39.8 µM [inhibitor, single point].

How did the Potency turn out when `CCN(C(=O)C1CCCN(S(=O)(=O)c2c(C)noc2/C=C/N(C)C)C1)c1cccc(C)c1` (configuration not stated) was run?
Its Potency is inconclusive: 20 µM [activator, single point].

How did the Potency turn out when `Cc1cccnc1NC(=O)Nc1cccc(C(F)(F)F)c1` was run?
The Potency was inconclusive: 7.94 µM [inhibitor, single point].

For `CCc1[nH]nc2c1C(c1ccncc1)C(C#N)=C(N)O2` (configuration not stated), which max response, negative = inhibition is on record?
The max response, negative = inhibition was inactive: -3.82%.

Which Potency does the source give for `CCS(=O)(=O)N1Cc2ccccc2CC1C(=O)Nc1nc2ccc(F)cc2s1` (configuration not stated) here?
The Potency was active: 12.6 µM.

Which Potency does the source give for `Cc1ccc2nc(/C(C#N)=C\c3ccc(N4CCCCC4)c([N+](=O)[O-])c3)[nH]c2c1` here?
Its Potency is inconclusive: 31.6 µM [inhibitor, single point].

With `CCc1nnc(SC(CC)C(=O)Nc2cccc(OC)c2)c2cc3oc(C)cc3n12` (configuration not stated) as the molecule, how does the max response, negative = inhibition read?
Its max response, negative = inhibition is inactive: 12.3%.

For `C=CCCCCCCCCCCC/C=C/C(O)COC(C)=O` (configuration not stated), which Potency is on record?
Its Potency is inconclusive: 25.1 µM [activator, single point].

How did the Potency turn out when `COC(=O)c1scc(-c2ccc(C)cc2)c1S(=O)(=O)N1CCN(c2cccc(OC)c2)CC1` was run?
Its Potency is inconclusive: 25.1 µM [inhibitor, single point].

For `O=C(NCc1ccccn1)c1c(O)c2cccc3c2n(c1=O)CC3`, which Potency is on record?
Its Potency is inconclusive: 31.6 µM [activator, single point].

Which Potency does the source give for `CCCCCCCC/C=C/CCCCCCCCOP(=O)([O-])OCC[N+](C)(C)C` here?
The Potency was inconclusive: 25.1 µM [activator, single point].

Which Potency does the source give for `Cc1ccc(NC(=S)N2CCN(CCN3C(=O)c4cccc5cccc(c45)C3=O)CC2)cc1` here?
The Potency was inconclusive: 39.8 µM [inhibitor, single point].

Which max response, negative = inhibition does the source give for `CC(C)Oc1ccc(C(=O)N(Cc2ccco2)c2ccccn2)cc1` here?
Its max response, negative = inhibition is inactive: 0.431%.

For `CCOc1ccccc1NC(=O)CN(C)S(=O)(=O)c1ccc2nc(C)sc2c1`, which Potency is on record?
Its Potency is inconclusive: 39.8 µM [activator, single point].

With `Nc1ccc2nn(-c3cccc4ccccc34)nc2c1` as the molecule, how does the Potency read?
The Potency was inconclusive: 31.6 µM [inhibitor, single point].

With `CC(=O)OCC(OC(C)=O)C(OC(C)=O)C(OC(C)=O)C(OC(C)=O)C(COC(C)=O)OC(C)=O` (configuration not stated) as the molecule, how does the Potency read?
The Potency was inconclusive: 10 µM [activator, partial curve].

With `Cc1nc(Oc2ccc(F)cc2Cl)c2oc3ccccc3c2n1` as the molecule, how does the Potency read?
Its Potency is inconclusive: 39.8 µM [activator, single point].

For `CCC(=O)N1CCc2cc(Br)cc(S(=O)(=O)CCC(=O)NCc3ccc(Cl)cc3)c21`, which Potency is on record?
Its Potency is inconclusive: 39.8 µM [activator, single point].

With `O=C1CC(c2ccc3c(c2)OCO3)Sc2nc3ccccc3n21` (configuration not stated) as the molecule, how does the Potency read?
The Potency was inconclusive: 39.8 µM [inhibitor, single point].

With `Cc1cccc(NC(=O)c2nnn(CC(=O)Nc3ccc(C(C)C)cc3)c2N)c1C` as the molecule, how does the Potency read?
The Potency was active: 20 µM.

For `COc1cc(/C=C/c2cc(OC(C)=O)c3ccccc3n2)c(OC(C)=O)c([N+](=O)[O-])c1`, which Potency is on record?
Its Potency is inconclusive: 31.6 µM [activator, partial curve].

`Cc1cccc(OCC(=O)Nc2ccc(Cl)c(-c3nc4ncccc4o3)c2)c1C` was tested. Which Potency did it give?
The Potency was inconclusive: 25.1 µM [inhibitor, partial curve, poor fit].

Which Potency does the source give for `CCOP(=O)(c1ccccc1)c1nc(-c2ccccc2C)oc1N1CCCCC1` (configuration not stated) here?
Its Potency is inconclusive: 31.6 µM [activator, single point].

`COc1cc2cc(CNc3ccc(C)cc3)c(=O)n(CC(=O)Nc3ccc(F)cc3F)c2cc1OC` was tested. Which max response, negative = inhibition did it give?
Its max response, negative = inhibition is inactive: 11.5%.

How did the Potency turn out when `COc1cc(C(=O)NCC(c2cccs2)S(=O)(=O)c2ccc(F)cc2)cc(OC)c1OC` (configuration not stated) was run?
The Potency was inconclusive: 31.6 µM [activator, partial curve].

How did the Potency turn out when `O=C(CC(c1ccccc1)c1ccccc1)Nc1ccc(Cl)cn1` was run?
Its Potency is inconclusive: 0.158 µM [inhibitor, full curve, poor fit].

With `Cc1ccc2nc(N3CCC(C(=O)N4CCN(c5cccc(Cl)c5)CC4)CC3)[nH]c2c1` as the molecule, how does the max response, negative = inhibition read?
Its max response, negative = inhibition is inactive: 3.29%.

Which Potency does the source give for `CCOCCCNC(=O)C(c1ccc(C)cc1)N(Cc1ccc2c(c1)OCO2)C(=O)c1ccc(NC(C)=O)cc1` (configuration not stated) here?
Its Potency is inconclusive: 25.1 µM [activator, single point].

How did the Potency turn out when `COC(=O)c1ccc(C(=O)OC)c(NC(=O)COC(=O)c2ccc(OC)c(OC)c2OC)c1` was run?
The Potency was inconclusive: 39.8 µM [activator, single point].

`CC(C)Nc1ccc(-c2nc(-c3ccco3)no2)cc1[N+](=O)[O-]` was tested. Which max response, negative = inhibition did it give?
Its max response, negative = inhibition is inactive: 18.6%.

For `COc1cc(CCN2C(=O)c3cccc4cccc(c34)C2=O)c(S(=O)(=O)N2CCCCCC2)cc1OC`, which Potency is on record?
The Potency was inconclusive: 20 µM [activator, single point].

With `O=C1C(=O)c2c(C(=O)c3ccccc3)coc2-c2ccccc21` as the molecule, how does the Potency read?
The Potency was inconclusive: 39.8 µM [inhibitor, single point].

`CN(Cc1ccccc1)C(=O)Nc1ccc2c(c1)N(C)C(=O)c1ccccc1S2` was tested. Which Potency did it give?
Its Potency is inconclusive: 25.1 µM [activator, single point].

With `COc1ccc(-c2noc(CC(=O)Nc3ccc(F)cc3F)n2)cc1` as the molecule, how does the Potency read?
The Potency was inconclusive: 15.8 µM [inhibitor, single point].

How did the Potency turn out when `CCc1ccc(NC(=O)CCn2nc(-c3ccccc3OC)c3c(C)cc(C)nc32)cc1` was run?
The Potency was inconclusive: 39.8 µM [activator, single point].

Which max response, negative = inhibition does the source give for `COc1ccccc1OC(C)C(=O)Nc1ccc(-c2nc3ccccc3s2)cc1` (configuration not stated) here?
Its max response, negative = inhibition is inactive: -8.92%.

For `Cc1cc(C)cc(NCc2cc3c(cc2[N+](=O)[O-])OCO3)c1`, which max response, negative = inhibition is on record?
Its max response, negative = inhibition is inactive: -2.02%.

With `COc1ccc(CCNc2nc(-c3sc(C)nc3C)cs2)cc1OC` as the molecule, how does the Potency read?
Its Potency is inconclusive: 20 µM [activator, single point].

With `COc1ccc(OC)c(NC(=O)CSc2nnc3ccc4ccccc4n23)c1` as the molecule, how does the Potency read?
The Potency was inconclusive: 39.8 µM [activator, single point].

How did the Potency turn out when `COc1ccc(NC(=O)C2=C(C)Nc3nc(SCc4ccccc4C)nn3C2c2cc(OC)c(O)c(OC)c2)cc1` (configuration not stated) was run?
Its Potency is active: 10 µM.

For `CCC1=C(OC(=O)N(CC)CC)N2C(=O)OC(=NCCOC)[C@]2(C)[C@H]2C1=CC[C@H]1C(=O)N(CC(=O)OC)C(=O)[C@H]12`, which Potency is on record?
Its Potency is inconclusive: 3.98 µM [activator, partial curve].

With `COc1ccc(-c2nc3cnc(N4CCOCC4)nc3n(C)c2=O)cc1` as the molecule, how does the Potency read?
The Potency was inconclusive: 31.6 µM [activator, single point].

With `CCc1ccc(-n2cnc3cc(C(=O)NCc4ccc(C)cc4)ccc32)cc1` as the molecule, how does the max response, negative = inhibition read?
Its max response, negative = inhibition is inactive: 15.9%.

`Cn1cccc1Cc1nnc(SCC(=O)Nc2ccc3c(c2)OCO3)n1CCc1ccccc1` was tested. Which Potency did it give?
The Potency was inconclusive: 39.8 µM [activator, single point].

For `Clc1ccc(/C=C/c2nc3ccccc3[nH]2)cc1`, which Potency is on record?
The Potency was active: 15.8 µM.

For `COc1ccc(/C(N)=N/OC(=O)CSc2ccc(C)cc2)cc1OC`, which Potency is on record?
Its Potency is inconclusive: 31.6 µM [activator, single point].

`COc1ccc(N2CCN(C(=O)CCn3nc(C)c(S(=O)(=O)N4CCCC4)c3C)CC2)cc1` was tested. Which Potency did it give?
Its Potency is inconclusive: 39.8 µM [activator, single point].

Which Potency does the source give for `CCOC(=O)N1CCN(C(=O)c2ccc3c(c2)sc2nc(-c4ccccc4)cn23)CC1` here?
Its Potency is inconclusive: 39.8 µM [activator, single point].

Which Potency does the source give for `COC(=O)c1ccc(/C=C/c2ccc3cccc(OC)c3n2)cc1` here?
The Potency was inconclusive: 39.8 µM [activator, single point].

With `Cc1ccc(OCCOCCOc2ccc(Br)cc2/C=N\NC(=O)c2ccncc2)cc1` as the molecule, how does the Potency read?
The Potency was inconclusive: 31.6 µM [activator, single point].
